Results on 73 sequences are retold here after paper PMC10726135.

The other results are listed elsewhere or left out. At the low end of the ranking the order means little. Measured with an extract: partners may take part in the binding.

For the assay, the target named is T1, HNF4alpha8 (COS-7 nuclear extract) (UniProt P41235-5).
T1 sequence: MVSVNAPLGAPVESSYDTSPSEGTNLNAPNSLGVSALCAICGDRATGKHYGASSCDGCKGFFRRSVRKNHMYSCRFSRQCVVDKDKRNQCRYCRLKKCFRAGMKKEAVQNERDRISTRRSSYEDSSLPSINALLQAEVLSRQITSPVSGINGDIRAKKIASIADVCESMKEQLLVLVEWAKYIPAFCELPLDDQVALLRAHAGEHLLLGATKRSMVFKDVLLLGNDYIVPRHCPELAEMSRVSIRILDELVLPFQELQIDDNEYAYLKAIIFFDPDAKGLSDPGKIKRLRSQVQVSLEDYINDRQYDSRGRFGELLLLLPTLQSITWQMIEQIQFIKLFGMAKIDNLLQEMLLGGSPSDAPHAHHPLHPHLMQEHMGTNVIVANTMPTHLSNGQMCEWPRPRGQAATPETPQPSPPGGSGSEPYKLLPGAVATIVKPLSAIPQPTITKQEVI
In words: protein-binding microarray. The conditions noted are these: COS-7 nuclear extract on double-stranded Agilent 4x180k PBM; binding buffer, salt, pH and temperature not given; high values mean tight binding; double strand, one strand shown; sequences stand for … in …GCCTAGGGAGATTAGAGTATCGGTCGA
Take GACGTGACCCGCCGCCCGAGGTCACTGTAT: the binding signal (log2 normalized intensity) is 3.53.
For the sequence GTCAGACCAGACAGCACCTCTCTGATGCCA, the binding signal (log2 normalized intensity) was -1.19.
The value for TCAGCTATCAGTTTACATTCCAGGGTGAAA was 0.191; that for CACAAACATACAACCATCAAAGGTCACTTT was 4.93; that for TCAGTTAATGTACAGAGTATAATAAAGTGG was 1.22.
In the case of AGTTCCATGAGTTAGTGCCCTCTGGTGGCA, the binding signal (log2 normalized intensity) stood at 2.48.
The value for TGGCTCCTCACCTCCAGGGAGGGGAGAGGG was -1.3.
As for CAAACTGCATTCTTGTAGGTTTTTTTTTTT, the binding signal (log2 normalized intensity) was found to be 2.45.
For the sequence GCCCTGGTTGAGGAATTTGGCTCTAGAGGA, the binding signal (log2 normalized intensity) is -1.23.
For GGGCCAGCAAGAGGTGACCCCAGGGCAAAG the value was 3.69.
The value for AGATAGAGGGCTGCCAAAGCTCACAGATGT was -1.42; that for AGCCCGAGCTGCTGGAACAGGCTGGGACAC was -1.44; that for ACGAAGAGCAAACATGGGCTTAAGACAAGA was -1.29.
As to TTTGCTCTGATCTTTGACTTCTAGTTCTTA, the binding signal (log2 normalized intensity) is 2.18.
In the case of CCAGAACTATCATACACTATTTTCCTAAAT, the binding signal (log2 normalized intensity) was -1.36.
The value for TAGGTTATCTTTGGAGAATGCCTTTTGTGT was 1.81.
The value for AGAAGGCAAAAATGCAGGCAATGAATAGAA was -1.17; that for TTTTAAGGTCTGGCATTCTTTTTGACCTTT was 8.23; that for TGTTTTTTGCCCTTTGTACCCACACACACC was 7.36.
For CCGCTGGCCTCCCCATCCTCATGACAGTAC the value was 2.98; for GTTCACAAATAGCAGAAAATCCAGGTGCAG, -1.29; for TCCCCACTTATTACCGGTGTGACTTTGGTT, 2.28.
For AAACTCCTTCCCTTTCATGTTGAACGTCTT, the binding signal (log2 normalized intensity) came to 1.84.
For CTGGTTGAGGCAAGCAAAAGCCAAGGCATC the value was -1.41.
For TGGCCCTCTTCCAAGTGTTCTTTACTTCCT the value was 0.96; for TGAAGTTACAAAGGTCACACACCTGTGCAA, 4.56; for CACTTGTGTGTAGACTCCAGGCTTGTCCTT, 1.71.
The value for CCACAGTATCCCTTGCTCAACTCCCTCTGA was -1.05; that for GAGAAACACATAAACCCTGACCCTCAAGGG was 1.55; that for CAAACAAATGCAAAACTGGCAAAACTGGTC was -1.26.
As to TAATCACTGCCCTTTGGTGCCTCTTTTTTC, the binding signal (log2 normalized intensity) was determined as 2.22.
Consider GCTGCCCTGGTAAGTTCCACTGCATCAGTG, for which the binding signal (log2 normalized intensity) was -1.23.
Take TTGATCATTCCTGCACAGGACTGCTCTCTA: the binding signal (log2 normalized intensity) is -0.304.
Consider GTTCAGTTAGAGGGCTCAATGGATACACCA, for which the binding signal (log2 normalized intensity) is -1.31.
For CAGTAGAAAACAGAGAAGCCGTGGTGCTGT the value was -1.03.
The value for TTCTTGTATCTGATCTGTGTTTCCACAAAC was 1.52.
For GGAGGCTCAGAGTCTGTGGAGACACTGCCA the value was -1.24; for GATAAAATGAAATCGCCTGATTGGTCATAC, 0.0457; for GTGACCTTTGACCTCTGGCCTTTGCAGTTA, 8.79.
AGTTGGAGGAACAGGTGGGGGTAAACATAG: the binding signal (log2 normalized intensity) was -1.22.
In the case of GCAAGGCTAGAGATTCTCCCTGGGGCCTCT, the binding signal (log2 normalized intensity) is -1.37.
For TGGCATGATCCCTGACTCATAGCTCCAGAG the value was -1.24; for TCAGATGAGACTTTGGACTTTTGAACTAAG, 7.23; for CAGAGGCTTCCTCTTTGGTGCAAAGGTCAG, 7.47.
For ACCCAGATAAGTTATCCTTGTTCTATGTTC the value was 1.73; for CTCGGGGATTAGCGATCATGGGTGACCCGT, 3.6.
For GAAGTTTTGCAATATAGGCCAGGCATACCT the value was -1.4; for TGAGAGAGAAAGAGACAGAGAGAGAGAGAG, -1.34; for CTCTGGAGTGCAGGTGGGAGGGGTGGACTT, 3.11.
Take TCAGGGCAAAGACTCAAATCCAAGCTGGCT: the binding signal (log2 normalized intensity) was -1.26.
In the case of CGACTCAGTGGGGGGGGGGGGGGGGGTGTG, the binding signal (log2 normalized intensity) is -1.33.
For GCATTTGCTCCCTGACTTGGTTTACAAGGT the value was 0.867.
For CAGTCATTGCCATCTGCAAGAGAGAATAGA the value was -1.32; for ACCCTCTGGGGCCGGGAGCAGGGAGCGAGA, -1.22.
The value for TGCAGGTTCATGGGAGAGCACTTGGTGCCT was -0.358; that for CCTGACCTGAAAGGTAGGCAGAGAGGCTGC was -1.23.
As to CCCAGCGGATTAATATCCAGAGGCTGAGCA, the binding signal (log2 normalized intensity) is -1.4.
The value for TTATCTCACAAGCATGGGCCTCCTCTTCTT was -1.36; that for GCTCTCCCACTCCCCCTGCTGGACACCGAG was 3.59.
For CAGGGTAGAAAAGAGTTAAAAAAAAAAAAA the value was -1.4; for TGATAGCTAGAGAGTTCAAGAAGGGCAGTT, 1.28; for TACTGAAATGCCAAAAAAGAAGAAGTGAAA, -1.21.
For CCTTTTTTTTGTGTGTGTGTCAGAGACCCA the value was 2.33; for GGACTGTGACCCCACCTCTCAGACAGAGCT, 3.8.
TTTGCTCTGTTGTGTCAAAGGTCACTTAGT: the binding signal (log2 normalized intensity) is 6.22.
For AGTCCACCAACTCTGTGAATTCATTTTTTT the value was 0.232; for CATTTCAGTGAACTTTTCAATGCTCCAGTA, 0.815.
The value for ACTTAACAAGTGAAAGTCTAAAGTTCAGTG was 5.16; that for ACTGGGAGATAATGCACTGGTGACTTTAAG was -0.117; that for CAACTAAAGGAATGCGCCTGAACTGACTGC was -1.26.
On to CCTTTTCACGCTAAGAAGGAATCTGTTCAC, for which the binding signal (log2 normalized intensity) worked out at 0.737.
For GGAATGAAACCAGTTTCAAAACCTGATTCT the value was -1.25; for CCAGTCGCTTAACCTCTTGATCCTGAGTTT, 1.76.
